# Some of the results follow.
# T1: UNK ZnF1-3 (human, UniProt Q9C0B0 31-174)
# T1 sequence: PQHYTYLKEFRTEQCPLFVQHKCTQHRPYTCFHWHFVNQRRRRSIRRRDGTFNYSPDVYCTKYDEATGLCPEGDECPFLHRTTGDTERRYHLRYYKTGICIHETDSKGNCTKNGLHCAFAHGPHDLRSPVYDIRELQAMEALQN
# B1: 47705432_47705552_2233_CDS_ENSG00000095002_ENST00000543555|human|control|control (ssRNA)
# RNA: GGGAGUUCUACAGUCCGACGAUCAAAAUGGGUUGCAAACAUGCAAAAAGCACCAAUCUUUGUUGCAAUGUAUUCUGAUAUAGCCCAUGCUAACCCAAAUCCAUCGUAGGUAGAAGUUCCUCUUCCCAAUUCAUCUAUGAUUAUCAACAGAGGAUUGAGCAUCA
# B2: chr17:30678820:30678821:+_ENSG00000010244_ENST00000394673|hu_hu|FALSE|FALSE (ssRNA)
# RNA: GGGAGUUCUACAGUCCGACGAUCAUUUAAAAUGCUUUGCUUUUUGGUGCUGAAUAAGGAUCUUCUCAUCAUCAAAAUCUCUAUUACAAUACCAGCACCACGGCUUCAGCUGCUUCUUCUUCUUGCGACCCAUAACUGUGUUCUCAACAGAGGAUUGAGCAUCA
# B3: chr4:115894766:115894767:+_ENSMUSG00000028698_ENSMUST00000030464|mus_hu|mus_mus_mus_hu_True|1_88 (ssRNA)
# RNA: GGGAGUUCUACAGUCCGACGAUCUUCCACACGGAAAUGUACUUCGGGUUUCCAACGGGCCAGUACCAGUCCGGCCAAACUACCCGAACAGGGUCCUCCCCCUCUCUCCUACAGAACACAACAAAAUGCCCCCGAACCCCGAACCAACAGAGGAUUGAGCAUCA
# B4: chr8:74858975:74858976:-_ENSG00000154582_ENST00000284811|hu_mus|hu_hu_hu_mus_True|18_88 (ssRNA)
# RNA: GGGAGUUCUACAGUCCGACGAUCGACCUUGUAGGUAAAAUACAUGCAUACUUUCGAUAGCACAUGUGAGGGGAUCUCUCUAAAAUUGACCUCGUUGGUUUCAUUCUCAGCAAACUGACCUGGGCCACUCAACAUAGCCUUUAUCAACAGAGGAUUGAGCAUCA
# B5: chr4:175158536:175158537:-_ENSG00000164117_ENST00000503293|hu_mus|FALSE|FALSE (ssRNA)
# RNA: GGGAGUUCUACAGUCCGACGAUCGAUUUUACACACAGGCUGGACUGGAGUGACCAGUGCUGAUGCAACCCUGCUGCCACUAAGUCUGUCCCUGGGUAGCCUCAGUCUGGAGUAAAAAGUUGAAGUUCGAACACUUGUGCUUUUCAACAGAGGAUUGAGCAUCA
# B6: 49558617_49558737_2561_CDS_ENSMUSG00000037892_ENSMUST00000035931|mouse|control|control (ssRNA)
# RNA: GGGAGUUCUACAGUCCGACGAUCCCUCGUUGCAAACAGGACCAUAAUAACCAGCAACACAGCACAAAUUGCUCCCAAGGAAAUAAUUAUGAUCAUGGACACAUCCAAGGAUGCGCGGCUGACAGAGGUCAUGGCUGUGCUUGUCAACAGAGGAUUGAGCAUCA
# B7: 99856004_99856124_904_CDS_ENSG00000132424_ENST00000438806|human|control|control (ssRNA)
# RNA: GGGAGUUCUACAGUCCGACGAUCUUCUGUGGCCUUUUUUUCUUUUUUGGACAAUUGUGAACGUUGUUGUUCCAUUCUUUCUUUCUCCAAUUUCUUCUGCUUUUCACGUUCCAUUUUUUCAAGACCUUCGCGAAUCCAAGCGGGCAACAGAGGAUUGAGCAUCA
# B8: chr21:38862523:38862524:+_ENSG00000157540_ENST00000338785|hu_mus|motif|central (ssRNA)
# RNA: GGGAGUUCUACAGUCCGACGAUCUCGGAAGUUGGUGUUUCUCAACAAAUCAUAGAGAUUAUAGGACAGCAUUUCAAACACGGAACAGAGAUGGUUUCGAAACAUAAAGUGGCGUUUCAAAUGCACUAUGUAGUACUUCAUUUCCAACAGAGGAUUGAGCAUCA
# B9: 90603600_90606004_1788_CDS_ENSMUSG00000008200_ENSMUST00000013759|mouse|control|control (ssRNA)
# RNA: GGGAGUUCUACAGUCCGACGAUCCAGUUCUCCAAUCUGAAAUUUCAGGUCCUGCUCUUCCUCCACUUUAGGUGCUAGCUGGACUUUGAUCUUCUCAGAAGACUCUUCUACUUCCGUUUCUUUGUCUGAAAUUUCAUCUAUUUUCAACAGAGGAUUGAGCAUCA
# B10: chr7:151640622:151640623:-_ENSMUSG00000031078_ENSMUST00000033407|mus_hu|FALSE|FALSE (ssRNA)
# RNA: GGGAGUUCUACAGUCCGACGAUCACCUUUGGAGUAAUCUCUCUGUGACUCGUGCUUCUCCGUCUUGCCCUGGUAGUCGAAGCCCACCGCGCUCUUGUCUACUCGGUCGGCCUGCACGCCAUACUUGCCGCCAAAACCACUGGACAACAGAGGAUUGAGCAUCA
# B11: chr19:36179134:36179135:+_ENSMUSG00000024800_ENSMUST00000025714|mus_mus|motif|central (ssRNA)
# RNA: GGGAGUUCUACAGUCCGACGAUCUACUGUUAUUCAUUAUUCACAUGAAGGAUAAAAUAGUUUUUCUCUUAAAGUAUAUCGGAAUUAAUUAAGCUGUUAGUCUUUAAAAAAUGCUUCACUGGGUUUUAUUUGCUGUUUUAAUGGCAACAGAGGAUUGAGCAUCA
# B12: chr16:33771563:33771564:+_ENSMUSG00000075254_ENSMUST00000152782|mus_hu|motif|central (ssRNA)
# RNA: GGGAGUUCUACAGUCCGACGAUCCAGACUUAGAGUGGAUAUAAGUAUAAAAAUAACCAAAUUCUUACAAAUAAUACUUUGCUGCGGCAGUACUGAAUAAUUAGUGGAGGUUGCAAUUAUAAUACAACUUUAAAUAACAUUCUCCAACAGAGGAUUGAGCAUCA
# B13: chr1:58468927:58468928:-_ENSMUSG00000026034_ENSMUST00000148330|mus_mus|mus_mus_mus_hu_False|28_28 (ssRNA)
# RNA: GGGAGUUCUACAGUCCGACGAUCAAUUACUGAAAAAGAUGUUCAUUACCUUAGCUAUGUACUUAAUGAACCAAAUUACCCAAACAAAAUAAACAUGGCAAUAUAAAAAGCUAUACAAUUUACAAAGCUGUACAAAAUAACUUACAACAGAGGAUUGAGCAUCA
# B14: 101291317_101296269_2030_3pUTR_ENSMUSG00000028528_ENSMUST00000094953|mouse|control|control (ssRNA)
# RNA: GGGAGUUCUACAGUCCGACGAUCGCACCUUCUCCCACUCUUAGGGUUGGCGAUGCAGAGGCGGAGGUGGCGGUUCGGCGCGGUGUGGACUGUGCAGACACAGGUCCACUAGGAUGAAACACAUCUUCUACCCCAGCCUGUCCUCAACAGAGGAUUGAGCAUCA
# B15: chr7:56126341:56126342:+_ENSG00000146731_ENST00000540286|hu_mus|hu_hu_hu_mus_True|8_88 (ssRNA)
# RNA: GGGAGUUCUACAGUCCGACGAUCCAUGUUUCUCCUCUUGGCUCUGCGCAGAGCAACGAUCCCUUCUUUCGCAAGGGCAUCUAAGGAAAAGGGGUCAAUCCCCUUUUGAUUAAUAACGACAAAUCCUUUAUCUGAAUCACCACACAACAGAGGAUUGAGCAUCA
# B16: 32832734_32832854_808_3pUTR_ENSMUSG00000013663_ENSMUST00000013807|mouse|control|control (ssRNA)
# RNA: GGGAGUUCUACAGUCCGACGAUCAAAUGGCUCUGGACUUGGCGGUCGCUGAUGCCCCUCGCUCUGCUGCCGCUUGGCCCUGGACCGCAGCCGGGUAAUGGCUGCUGCGGCGGCUGCUGGAUGGUUGCAGAGACUGGGCCUGCUCAACAGAGGAUUGAGCAUCA
# B17: chr8:117878989:117878990:-_ENSG00000164754_ENST00000297338|hu_hu|hu_hu_hu_mus_True|18_108 (ssRNA)
# RNA: GGGAGUUCUACAGUCCGACGAUCCCAGAGGCCCUCUUUUACUGAGGACAAAAUGUGCGUAGAACAUUUUUCUUAUUUGCUAUGAAAUAAGAAGAAACCUGGAUCUCGGCGGGGAGCUUGGGCGGGCGGGUGGCCCGGGGAGGGCAACAGAGGAUUGAGCAUCA
# B18: chr16:37877144:37877145:+_ENSMUSG00000034158_ENSMUST00000078717|perfect_dup|FALSE|FALSE (ssRNA)
# RNA: GGGAGUUCUACAGUCCGACGAUCAUUUGCUAAUUCUGGUGGGAUUUCUUUAAUGAAGUUUCCUCCAAGGUAUAAACAUUCUAAACUCCGCAAGUUCUCGAUCUCGGCGGGGAUGCUCUGCAGCUGGUUGCCGCCCAGGCUGAGCAACAGAGGAUUGAGCAUCA
# B19: chr10:84155644:84155645:+_ENSMUSG00000034453_ENSMUST00000077175|mus_hu|motif|central (ssRNA)
# RNA: GGGAGUUCUACAGUCCGACGAUCACUAUAGCUCAUCACAGCAACUGUUGCAUUCUGUCCAGCUGGCAGUUUCUCAAAUUCGGUCAAUUCAAUGGUUUUUGUCUUAACCAUGGGUUUUUGUGGAUAUGCUAGUAGAUACAUGAGCAACAGAGGAUUGAGCAUCA
# B20: chr11:77336104:77336105:-_ENSG00000074201_ENST00000525064|hu_mus|hu_hu_hu_mus_False|1_68 (ssRNA)
# RNA: GGGAGUUCUACAGUCCGACGAUCCUCACACAUUGCUGUGAACAUCGCCUCCAAUGCUGACUUAUCACUAGGCACAAAUCGAAAUUCAGAAAUGGGUUCAACAUCAUCAUUGUCUUCCUCAUCUUCAUCAGAGAGAGCAGGUUCCAACAGAGGAUUGAGCAUCA
# B21: chr6:17615347:17615348:+_ENSMUSG00000015733_ENSMUST00000015877|mus_hu|FALSE|FALSE (ssRNA)
# RNA: GGGAGUUCUACAGUCCGACGAUCUCCGGUCAUGCAAUGUUCAUCUUAUGCAUUCUGCAUCUCUUUGCCAAUCUUGUAGCUAAGGAUCUUGUUCCAAUCAAUCUUAGUGCGUGUAACUGGCAACUGUCGACGUAAGGCUUUGAACAACAGAGGAUUGAGCAUCA
# B22: chr1:66462064:66462065:+_ENSMUSG00000015222_ENSMUST00000114013|mus_mus|motif|central (ssRNA)
# RNA: GGGAGUUCUACAGUCCGACGAUCGACCUCACCCUUCUCAUCCGUGGAUAAAUCAGCUUCGGAAACUGGAGGCGGGCAAGGGAUUUCGGCAGACAGCUUGAGGGCAACUUCAUCUUGGAUCAGUGAUGUCUCUGGAGAUGUUUCCAACAGAGGAUUGAGCAUCA
# Biological target: T1, UNK ZnF1-3
# Experiment: nsRBNS (natural sequence RNA bind-n-seq); RBNS binding buffer (assumed for nsRBNS): 25 mM Tris pH 7.5, 150 mM KCl, 3 mM MgCl2, 0.01% Triton X-100, 500 ug/ml BSA, 20 U/ml SUPERase-In, 4 C; UNK is unkempt and MSI1 is Musashi-1; names of the RNAs are library labels; protein concentration not given here; high values mean tight binding
row,Binder,binding signal [enrichment R]
1,B1,0.665
2,B2,0.549
3,B3,1.1
4,B4,0.716
5,B5,0.796
6,B6,1.44
7,B7,0.236
8,B8,1.06
9,B9,0.293
10,B10,0.581
11,B11,1.96
12,B12,1.8
13,B13,0.753
14,B14,0.893
15,B15,1.17
16,B16,0.409
17,B17,1.13
18,B18,0.661
19,B19,0.898
20,B20,1.05
21,B21,0.63
22,B22,1.15
